# Measured values from the supplement of paper PMC8728848.
# Some of the results follow.
# B1: Calsepa (Calystegia sepium), P93114 (protein)
# chain: MAVPMDTISGPWGNNGGNFWSFRPVNKINQIVISYGGGGNNPIALTFSSTKADGSKDTITVGGGGPDSITGTEMVNIGTDEYLTGISGTFGIYLDNNVLRSITFTTNLKAHGPYGQKVGTPFSSANVVGNEIVGFLGRSGYYVDAIGTYNRHK
# What was measured:
# Experiment in all cases: glycan array binding signal (z-score within array); higher = stronger binding
# Conditions in all cases: glycan notation: IUPAC condensed, linker removed
# Fuc(a1-2)Gal = target: Fuc(a1-2)Gal
# Procedure, shortened: (§1)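 The binding signal is a Z-score computed within each array and averaged over linkers. Arrays of the same protein sequence at different concentrations or buffers were also averaged together. Data originate from 3228 arrays in the Consortium for Functional Glycomics database, kept only where the protein sequence was available.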
# Fuc(a1-2)Gal(b1-3)GalNAc = target: Fuc(a1-2)Gal(b1-3)GalNAc
# Procedure, shortened: as §1
# [1] = target: Fuc(a1-2)Gal(b1-3)GalNAc(a1-3)[Fuc(a1-2)]Gal(b1-4)Glc
# Procedure, shortened: as §1
# [2] = target: Fuc(a1-2)Gal(b1-3)GalNAc(a1-3)[Fuc(a1-2)]Gal(b1-4)GlcNAc
# Procedure, shortened: as §1
# [3] = target: Fuc(a1-2)Gal(b1-3)GalNAc(b1-3)Gal
# Procedure, shortened: as §1
# [4] = target: Fuc(a1-2)Gal(b1-3)GalNAc(b1-3)Gal(a1-4)Gal(b1-4)Glc
# Procedure, shortened: as §1
# [5] = target: Fuc(a1-2)Gal(b1-3)GalNAc(b1-4)[Neu5Ac(a2-3)]Gal(b1-4)Glc
# Procedure, shortened: as §1
# Fuc(a1-2)Gal(b1-3)GlcNAc = target: Fuc(a1-2)Gal(b1-3)GlcNAc
# Procedure, shortened: as §1
# [6] = target: Fuc(a1-2)Gal(b1-3)GlcNAc(b1-2)Man(a1-3)[Fuc(a1-2)Gal(b1-3)GlcNAc(b1-2)Man(a1-6)]Man(b1-4)GlcNAc(b1-4)GlcNAc
# Procedure, shortened: as §1
# [7] = target: Fuc(a1-2)Gal(b1-3)GlcNAc(b1-2)Man(a1-3)[Fuc(a1-2)Gal(b1-3)GlcNAc(b1-2)Man(a1-6)]Man(b1-4)GlcNAc(b1-4)[Fuc(a1-6)]GlcNAc
# Procedure, shortened: as §1
# [8] = target: Fuc(a1-2)Gal(b1-3)GlcNAc(b1-3)Gal(b1-4)Glc
# Procedure, shortened: as §1
# [9] = target: Fuc(a1-2)Gal(b1-3)GlcNAc(b1-3)GalNAc
# Procedure, shortened: as §1
# [10] = target: Fuc(a1-2)Gal(b1-3)GlcNAc(b1-3)[Fuc(a1-2)Gal(b1-3)GlcNAc(b1-6)]GalNAc
# Procedure, shortened: as §1
# [11] = target: Fuc(a1-2)Gal(b1-3)GlcNAc(b1-3)[Fuc(a1-3)[Gal(b1-4)]GlcNAc(b1-6)]Gal(b1-4)Glc
# Procedure, shortened: as §1
# [12] = target: Fuc(a1-2)Gal(b1-3)GlcNAc(b1-3)[Gal(b1-4)GlcNAc(b1-6)]Gal(b1-4)Glc
# Procedure, shortened: as §1
# [13] = target: Fuc(a1-2)Gal(b1-3)GlcNAc(b1-3)[Gal(b1-4)[Fuc(a1-3)]GlcNAc(b1-6)]Gal(b1-4)Glc
# Procedure, shortened: as §1
# [14] = target: Fuc(a1-2)Gal(b1-3)GlcNAc(b1-3)[Neu5Ac(a2-6)Gal(b1-4)GlcNAc(b1-6)]Gal(b1-4)Glc
# Procedure, shortened: as §1
# [15] = target: Fuc(a1-2)Gal(b1-3)GlcNAc6S
# Procedure, shortened: as §1
# [16] = target: Fuc(a1-2)Gal(b1-3)[Fuc(a1-4)]GlcNAc
# Procedure, shortened: as §1
# [17] = target: Fuc(a1-2)Gal(b1-3)[Fuc(a1-4)]GlcNAc(b1-2)Man(a1-3)[Fuc(a1-2)Gal(b1-3)[Fuc(a1-4)]GlcNAc(b1-2)Man(a1-6)]Man(b1-4)GlcNAc(b1-4)GlcNAc
# Procedure, shortened: as §1
# [18] = target: Fuc(a1-2)Gal(b1-3)[Fuc(a1-4)]GlcNAc(b1-2)Man(a1-6)[Fuc(a1-2)Gal(b1-3)[Fuc(a1-4)]GlcNAc(b1-2)Man(a1-3)]Man(b1-4)GlcNAc(b1-4)[Fuc(a1-6)]GlcNAc
# Procedure, shortened: as §1
# [19] = target: Fuc(a1-2)Gal(b1-3)[Fuc(a1-4)]GlcNAc(b1-3)[Fuc(a1-3)[Gal(b1-4)]GlcNAc(b1-6)]Gal(b1-4)Glc
# Procedure, shortened: as §1
# [20] = target: Fuc(a1-2)Gal(b1-3)[Fuc(a1-4)]GlcNAc(b1-3)[Gal(b1-4)GlcNAc(b1-6)]Gal(b1-4)Glc
# Procedure, shortened: as §1
# Fuc(a1-2)Gal(b1-4)Glc = target: Fuc(a1-2)Gal(b1-4)Glc
# Procedure, shortened: as §1
# Fuc(a1-2)Gal(b1-4)Glc6S = target: Fuc(a1-2)Gal(b1-4)Glc6S
# Procedure, shortened: as §1
# Fuc(a1-2)Gal(b1-4)GlcNAc = target: Fuc(a1-2)Gal(b1-4)GlcNAc
# Procedure, shortened: as §1
# [21] = target: Fuc(a1-2)Gal(b1-4)GlcNAc(b1-2)Man
# Procedure, shortened: as §1
# [22] = target: Fuc(a1-2)Gal(b1-4)GlcNAc(b1-2)Man(a1-3)[Fuc(a1-2)Gal(b1-4)GlcNAc(b1-2)Man(a1-6)]Man(b1-4)GlcNAc(b1-4)GlcNAc
# Procedure, shortened: as §1
# [23] = target: Fuc(a1-2)Gal(b1-4)GlcNAc(b1-2)Man(a1-3)[Fuc(a1-2)Gal(b1-4)GlcNAc(b1-2)Man(a1-6)]Man(b1-4)GlcNAc(b1-4)[Fuc(a1-6)]GlcNAc
# Procedure, shortened: as §1
# [24] = target: Fuc(a1-2)Gal(b1-4)GlcNAc(b1-2)[Fuc(a1-2)Gal(b1-4)GlcNAc(b1-4)]Man(a1-3)[Fuc(a1-2)Gal(b1-4)GlcNAc(b1-2)Man(a1-6)]Man(b1-4)GlcNAc(b1-4)GlcNAc
# Procedure, shortened: as §1
# [25] = target: Fuc(a1-2)Gal(b1-4)GlcNAc(b1-3)Gal(b1-4)GlcNAc
# Procedure, shortened: as §1
# [26] = target: Fuc(a1-2)Gal(b1-4)GlcNAc(b1-3)Gal(b1-4)GlcNAc(b1-3)Gal(b1-4)GlcNAc
# Procedure, shortened: as §1
# [27] = target: Fuc(a1-2)Gal(b1-4)GlcNAc(b1-3)GalNAc
# Procedure, shortened: as §1
# [28] = target: Fuc(a1-2)Gal(b1-4)GlcNAc(b1-3)[Fuc(a1-2)Gal(b1-4)GlcNAc(b1-6)]GalNAc
# Procedure, shortened: as §1
# [29] = target: Fuc(a1-2)Gal(b1-4)GlcNAc(b1-6)GalNAc
# Procedure, shortened: as §1
# [30] = target: Fuc(a1-2)Gal(b1-4)GlcNAc6S
# Procedure, shortened: as §1
# [31] = target: Fuc(a1-2)Gal(b1-4)[Fuc(a1-3)]GlcNAc
# Procedure, shortened: as §1
binder,measurement,setting,value
B1,glycan array binding signal (z-score),Fuc(a1-2)Gal,-0.248
same,glycan array binding signal (z-score),Fuc(a1-2)Gal(b1-3)GalNAc,-0.215
same,glycan array binding signal (z-score),[1],-0.269
same,glycan array binding signal (z-score),[2],-0.276
same,glycan array binding signal (z-score),[3],-0.232
same,glycan array binding signal (z-score),[4],-0.254
same,glycan array binding signal (z-score),[5],-0.252
same,glycan array binding signal (z-score),Fuc(a1-2)Gal(b1-3)GlcNAc,-0.251
same,glycan array binding signal (z-score),[6],-0.215
same,glycan array binding signal (z-score),[7],-0.262
same,glycan array binding signal (z-score),[8],-0.244
same,glycan array binding signal (z-score),[9],-0.268
same,glycan array binding signal (z-score),[10],-0.266
same,glycan array binding signal (z-score),[11],-0.268
same,glycan array binding signal (z-score),[12],-0.277
same,glycan array binding signal (z-score),[13],-0.16
same,glycan array binding signal (z-score),[14],-0.269
same,glycan array binding signal (z-score),[15],-0.225
same,glycan array binding signal (z-score),[16],-0.241
same,glycan array binding signal (z-score),[17],-0.224
same,glycan array binding signal (z-score),[18],-0.265
same,glycan array binding signal (z-score),[19],-0.26
same,glycan array binding signal (z-score),[20],-0.222
same,glycan array binding signal (z-score),Fuc(a1-2)Gal(b1-4)Glc,-0.246
same,glycan array binding signal (z-score),Fuc(a1-2)Gal(b1-4)Glc6S,-0.242
same,glycan array binding signal (z-score),Fuc(a1-2)Gal(b1-4)GlcNAc,-0.249
same,glycan array binding signal (z-score),[21],-0.271
same,glycan array binding signal (z-score),[22],1.08
same,glycan array binding signal (z-score),[23],-0.242
same,glycan array binding signal (z-score),[24],-0.245
same,glycan array binding signal (z-score),[25],-0.248
same,glycan array binding signal (z-score),[26],-0.243
same,glycan array binding signal (z-score),[27],-0.267
same,glycan array binding signal (z-score),[28],-0.268
same,glycan array binding signal (z-score),[29],-0.26
same,glycan array binding signal (z-score),[30],-0.249
same,glycan array binding signal (z-score),[31],-0.246
